Measured values: patent US20040259942A1, “Modulation of stat activity” (priority 2001, published 2004)
Numbered stars: 1 amine (or outer) side, 2 acyl side, 3 side chain; on linkers, the order of the positions; unused ones are H or OH. Bridge positions count the residues as written; N and C are the ends. Square brackets hold non-standard residues; d marks the D form. Peptide text beside a SMILES is read from it. I, II: the chains in the order shown. Actinocin(9to1) = Cc1c2oc3c(C)ccc(C(=O)[*:1])c3nc-2c(C(=O)[*:2])c(N)c1=O; NMeV = CN[C@H](C(=O)O)C(C)C; Sar = CNCC(=O)O

Assays:
STAT1 and STAT3 [1] = format: cell-based, human
Procedure: Extracts were cleared by centrifugation at 16,000×g for 10 minutes, snap-frozen in liquid N2 and stored at −80° C. Nuclear extracts were prepared in high salt hypertonic buffer (20 mM HEPES pH7.9, 420 mM NaCl, 20% glycerol, 1 mM EDTA, 1 mM EGTA, 0.2% NP-40, 20 mM NaF, 1 mM Na3 VO4, 1 mM Na4P2O7, 2 mM Benzamidine, 0.5 mM PMSF, 1 mM DTT and 1 μg/ml each of leupeptin, aprotinin and pepstatin.
Nuclear extracts were prepared as described previously (11) in high salt hypertonic buffer (2 mM HEPES pH7.9, 420 mM NaCl, 20% glycerol, 1 mM EDTA, 1 mM EGTA, 20 mM NaF, 1 mM Na3VO4, 1 mM Na4P2O7, 2 mM Benzamidine, 0.5 mM PMSF, 1 mM DTT and 1 μg/ml each of leupeptin, aprotinin and pepstatin.

STAT1 and STAT3 [2] = format: cell-based, human; details: for serum induction of STAT1 and STAT3 DNA-binding activity: Figure 11, lower panel; for serum stimulation of DNA binding by STAT1 and STAT3: pretreatment α-amanitin 2.5 hours, Actinomycin D 10 minutes; for levels of STAT1 and STAT3 activation by serum: inhibitors of transcription, FIG. 13 upper panel; for serum induction of STAT1 and 3 complexes: 200 μM pre-treatment 30 min, serum 2 h
STAT1 and STAT3 [3] = details: ref (11); cited from earlier work
STAT1 and STAT3 [4] = test: H2O2 (ROS)-induced STAT DNA binding (EMSA); format: cell-based, human; details: H2O2 increases intracellular ROS

N#C/C(=C/c1ccc(O)c(O)c1)C(=O)NCc1ccccc1 [AG490]
STAT activation by EGF (DNA-binding) (STAT1 and STAT3 [1]; BT20 and MDA-MB-468 cells, 100 μM): abolished STAT activation by EGF
serum-dependent activation of STAT3 (STAT1 and STAT3 [2]; BR293 cells, pre-treatment 100 μM for 30 minutes): completely blocked STAT3 activation
serum induction of STAT1 and STAT3 DNA-binding activity (STAT1 and STAT3 [2]): inhibited serum induction of STAT1 and STAT3 DNA-binding activity
STAT3 activity in cells growing in full medium (STAT1 and STAT3 [2]; MDA-MB468 cells): reduced the elevated, serum-dependent level of STAT3 activity to a constitutive basal level
STAT3 activation by serum (STAT1 and STAT3 [3]): interferes with STAT3 activation by serum

Cc1c2oc3c(C)ccc(C(=O)N[C@@H]4C(=O)N[C@H](C(C)C)C(=O)N5CCC[C@H]5C(=O)N(C)CC(=O)N(C)[C@@H](C(C)C)C(=O)O[C@@H]4C)c3nc-2c(C(=O)N[C@@H]2C(=O)N[C@H](C(C)C)C(=O)N3CCC[C@H]3C(=O)N(C)CC(=O)N(C)[C@@H](C(C)C)C(=O)O[C@@H]2C)c(N)c1=O [Actinomycin D] (I: T[dV]P[Sar][NMeV] / II: T[dV]P[Sar][NMeV]; ester I:1-I:C, II:1-II:C; linker I:N-II:N via Actinocin(9to1))
serum stimulation of DNA binding by STAT1 and STAT3 (STAT1 and STAT3 [2]; BR293 cells): blocked the stimulation of DNA binding by STAT1 and STAT3
levels of STAT1 and STAT3 activation by serum (STAT1 and STAT3 [2]): reduce the levels of STAT1 and STAT3 activation by serum

c1ccc2c(c1)[I+]c1ccccc1-2 [DPI, diphenylene iodonium chloride]
serum induction of STAT1 and STAT3 DNA-binding activity (STAT1 and STAT3 [2]): inhibited serum induction of STAT1 and STAT3 DNA-binding activity

CC(=O)N[C@@H](CS)C(=O)O [NAC, N-acetyl cysteine]
serum induction of STAT1 and STAT3 DNA-binding activity (STAT1 and STAT3 [2]): inhibited serum induction of STAT1 and STAT3 DNA-binding activity

CCCC(=O)CC(=O)N[C@H]1CCOC1=O [OHHL, N-(3-oxohexanoyl)-L-homoserine lactone]
activation of STAT1 and STAT3 DNA binding by H2O2 (STAT1 and STAT3 [4]): but not OHHL
activation of STAT3 by EGF in DNA-binding assays (STAT1 and STAT3 [1]; MDA-MB-468 cells, 100 μM): unaffected
serum induction of STAT1 and 3 complexes (STAT1 and STAT3 [2]; BR293 cells): but not OHHL
effect on STAT3 DNA binding (STAT1 and STAT3 [2]; BR293 nuclear extracts, at 1001M as printed): only a marginal effect

CCCCCCCCCC(=O)CC(=O)N[C@H]1CCOC1=O [OdDHL, N-(3-oxo-dodecanoyl)-L-homoserine lactone]
activation of STAT1 and STAT3 DNA binding by H2O2 (STAT1 and STAT3 [4]): blocks the activation of STAT1 and STAT3 DNA binding by H2O2
activation of STAT3 by EGF in DNA-binding assays (STAT1 and STAT3 [1]; MDA-MB-468 cells, 100 μM): enhanced
DNA binding by STAT1 and STAT3 at sub-inhibitory concentration (STAT1 and STAT3 [2]; BR293 cells, 20 μM): increase in DNA binding by STAT1 and STAT3
serum induction of STAT1 and 3 complexes (STAT1 and STAT3 [2]; BR293 cells): prevented serum induction of STAT1 and 3 complexes
concentration at which DNA binding by STAT3 was inhibited (STAT1 and STAT3 [2]; BR293 nuclear extracts, serum stimulation): 50 µM
STAT activation at sub-inhibitory concentration (STAT1 and STAT3 [2]; MDA-MB-468 cells, 10 μM OdDHL): an increase is also observed
IC50 (STAT1 and STAT3 [2]; titration, FIG. 12, read-out: IC50 for the inhibition of serum-induced STAT1 and STAT3 DNA-binding activity): 50 to 100 µM

COc1cc2ncnc(Nc3cccc(Br)c3)c2cc1OC [PD 153035]
induction of SIE-bound STAT complexes by EGF (STAT1 and STAT3 [1]; MDA-MB-468 cells, pre-treatment 100 nM for 30 minutes): abrogated the induction of SIE-bound STAT complexes by EGF
delayed serum stimulation of STAT3 DNA-binding (STAT1 and STAT3 [2]; serum-starved MDA-MB-468 cells pre-treated with inhibitor, FCS, result not shown): not affected

α-amanitin
serum stimulation of DNA binding by STAT1 and STAT3 (STAT1 and STAT3 [2]; BR293 cells): blocked the stimulation of DNA binding by STAT1 and STAT3
levels of STAT1 and STAT3 activation by serum (STAT1 and STAT3 [2]): reduce the levels of STAT1 and STAT3 activation by serum
